Screen size: about 110,000 compounds; about 230 (0.21%) showed an effect of 50% or more. This is one part of the list.
The molecules below were run against DPAP1 (Plasmodium falciparum, UniProt Q8IIJ9) (assay: primary screen, percent inhibition; read by cleavage of a fluorogenic dipeptide substrate; higher = more effect of the substance).
Parameters: species or system P. falciparum D10 trophozoite lysates; single well
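Note: 30 min substrate incubation versus DMSO and 10 µM JCP410 controls.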

Sequence of DPAP1 (Q8IIJ9 whole entry, looked up): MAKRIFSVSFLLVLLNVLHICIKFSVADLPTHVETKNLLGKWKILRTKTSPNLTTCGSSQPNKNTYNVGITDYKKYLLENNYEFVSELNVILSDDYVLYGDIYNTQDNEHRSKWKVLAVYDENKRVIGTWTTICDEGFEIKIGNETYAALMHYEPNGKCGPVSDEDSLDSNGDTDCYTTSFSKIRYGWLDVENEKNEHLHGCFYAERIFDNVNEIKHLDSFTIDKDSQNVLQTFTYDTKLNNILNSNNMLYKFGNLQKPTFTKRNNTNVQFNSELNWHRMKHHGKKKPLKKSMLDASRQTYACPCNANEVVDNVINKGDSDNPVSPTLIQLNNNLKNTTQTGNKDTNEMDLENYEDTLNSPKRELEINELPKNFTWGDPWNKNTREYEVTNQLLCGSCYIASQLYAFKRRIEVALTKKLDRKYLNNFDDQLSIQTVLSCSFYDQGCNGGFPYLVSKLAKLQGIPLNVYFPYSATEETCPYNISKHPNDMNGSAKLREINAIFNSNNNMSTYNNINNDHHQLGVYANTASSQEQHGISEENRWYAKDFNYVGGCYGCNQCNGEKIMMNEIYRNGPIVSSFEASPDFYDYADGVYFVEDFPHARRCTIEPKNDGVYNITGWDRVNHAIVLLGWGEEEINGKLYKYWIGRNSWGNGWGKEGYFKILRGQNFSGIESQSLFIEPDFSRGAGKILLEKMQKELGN

In order of falling “% Inhibition @ 10 uM” value:
1. CCNc1nc(-c2ccccc2)cs1  89.1%
2. O=C(NC1(C(F)(F)F)N=C(c2ccccc2)N(C2CCCCC2)C1=O)c1ccco1 (stereo not shown)  17.8%
3. O=C1c2cccc3cccc(c23)C(=O)N1CC1CCNCC1  14.6%
4. Cn1c(=O)c2ncn(CC(=O)Nc3nc(-c4ccc(Cl)cc4)cs3)c2n(C)c1=O  11.1%
5. O=C(NCCc1ccc(Cl)cc1)C1CCCN(c2nc3ccccc3n3cccc23)C1 (stereo not shown)  7.34%
6. CCOc1ccc(C(=O)Nc2ccc(N3CCN(C)CC3)cc2)cc1Br  6.1%
7. Cc1cc(C)n(-c2nc3ccccc3[nH]2)n1  6.01%
8. Cc1noc(NS(=O)(=O)c2ccc(N3C(=O)c4ccccc4C3=O)cc2)c1C  5.26%
9. COc1ccc(NC(=O)Nc2ccc(Cc3ccncc3)cc2)cc1OC  5.24%
10. COc1ccc(CN2CCCCCC2)cc1Br  4.81%
11. CCc1noc(C)c1C(=O)Nc1nc(-c2cccc(Cl)c2)c(C)s1  3.94%
12. CCOc1ccc(CCNC2=NS(=O)(=O)C(c3ccc(C(C)C)cc3)=C2C)cc1  3.87%
13. Nc1ccc(Oc2ccc(S(=O)(=O)c3ccc(Oc4ccc(N)cc4)cc3)cc2)cc1  3.47%
14. Cc1ccc(NC(=O)OC2CCCCC2)cc1NC(=O)NCCO  3.25%
15. CC1(c2ccccc2)CC(C)(C)N(C(N)=O)c2ccccc21 (stereo not shown)  3.01%
16. CCc1cc(=O)oc2cc3occ(-c4cccc(OC)c4)c3cc12  2.21%
17. CC(C)C1Oc2cc3oc(=O)ccc3cc2C1=O (stereo not shown)  2.13%
18. COc1ccc(CCNC(=O)c2cccnc2Cl)cc1OC  2.13%
19. CC[n+]1ccc2ccc(C)cc2c1S(=O)(=O)O  2.1%
20. Cn1c2ccccc2c2c(C(=O)NCCc3ccc(Cl)cc3)cn(C3CCCC3)c(=O)c21  1.85%
21. CC(C)(C)OC(=O)N[C@@H](Cc1cc(I)cc(I)c1)C(=O)NCC#N  1.7%
22. Cc1ccccc1N1CCN(Cc2cc([N+](=O)[O-])ccc2Cl)CC1  1.63%
23. CCc1ccc(-c2cc3c(=O)n(CC(=O)NC4CCCC(C)C4C)nc(C)n3n2)cc1 (stereo not shown)  0.623%
24. COc1cc(OC)c2c(c1)O[C@@H](c1ccc(OC)c(OC)c1)[C@H](O)C2  0.5%
25. CC1(C)CC(CCN2C(=O)CCC2=O)(Cc2ccccc2)CCO1 (stereo not shown)  0.343%
26. COc1cc(C(=O)Nc2ccc(S(=O)(=O)NC(C)=O)cc2)cc(OC)c1OC  0.316%
27. O=C(CN1Cc2ccccc2C1=O)NCCC1=CCCCC1  0.264%
28. CS(=O)(=O)N(CCc1ccccc1)CC(=O)Nc1ccccc1  -0.318%
29. CC(C)(C)c1ccc(C(=O)O/N=C(\N)c2nonc2N)cc1  -0.597%
30. COc1ccc(C2C3C(=NN2C(C)=O)C2CCN3CC2)cc1 (stereo not shown)  -0.902%
31. Cc1ccc(C(=O)N(Cc2ccccc2F)C2CCS(=O)(=O)C2)cc1 (stereo not shown)  -1.35%
32. O=C1c2ccccc2NC(c2ccc(Br)cc2)N1c1ccc(Br)cc1 (stereo not shown)  -1.5%
33. CCN1CCC(NCc2cccc(Br)c2)CC1  -1.5%
34. COc1ccc(/C=C/C(=O)N2CCN=C2c2ccccc2)cc1OC  -1.52%
35. CCN1CCN(Cc2cc(Br)ccc2O)CC1  -1.78%
36. COCCNC(=O)C1CCCN(c2nn3cc(-c4ccc(C)cc4)nc3s2)C1 (stereo not shown)  -1.95%
37. CCc1ccc(S(=O)(=O)c2nnn3c2nc(NC2CCCCC2)c2sccc23)cc1  -1.97%
38. N#CC1=C(N)OC2=C(C(=O)CCC2)C1c1ccc(Br)s1 (stereo not shown)  -2%
39. CC(C)NC(=O)/C=C/c1ccc(Cl)cc1  -2.12%
40. CC(C)C[C@H](NC(=O)C1CCNCC1)C(=O)N[C@@H](CCc1ccccc1)C(=O)C[N+](=O)[O-]  -2.35%
41. OCCC1CCCCN1Cc1ccc(Cl)c(Cl)c1 (stereo not shown)  -2.36%
42. CCN1C(=O)NC(c2ccccc2)(c2ccccc2)C1=O  -2.44%
43. O[S+](N1CCCCCC1)C12CC3CC(CC(C3)C1)C2 (stereo not shown)  -2.48%
44. CN(C)c1ccc(-c2c(C#N)c(S)nc3c2C(=O)CC(C)(C)C3)cc1  -2.81%
45. COCCNC(=O)c1cnn2c(O)cc(C3CCN(C(=O)OC(C)(C)C)CC3)nc12  -2.83%
46. O=C(Nc1ccc2c(c1)oc1ccccc12)c1ccc(Cl)cc1Cl  -2.91%
47. Cc1ccc(Cl)cc1N1C(=O)CC(N2CCN(c3ccccc3)CC2)C1=O (stereo not shown)  -2.98%
48. O=C(Nc1ccc(-c2ccc(NC(=O)c3ccncc3)cc2)cc1)c1ccncc1  -2.98%
49. COc1ccc(CNC(=O)CCS(=O)(=O)Cc2cccc(Cl)c2)c(OC)c1  -2.99%
50. COc1cccc(C2CC(=O)Nc3c2ccc2ccccc32)c1OC (stereo not shown)  -3.09%
51. CCOC(=O)N1CCN(S(=O)(=O)N2CCCC(C(=O)NCc3ccco3)C2)CC1 (stereo not shown)  -3.12%
52. O=C(NCCc1ccc2c(c1)OCO2)c1cccc2ccccc12  -3.37%
53. O=C(Cc1ccc(F)cc1F)Nc1cccc2ccccc12  -3.42%
54. CCOc1ccc(CNC(=O)CN(C)c2nn3c(=O)cc(C)nc3s2)cc1  -3.79%
55. O=C(Cn1c2ccccc2c2cnnc(O)c21)NCCC1=CCCCC1  -3.79%
56. O=C(c1ccncc1)N1CCN(Cc2cccc(Br)c2)CC1  -3.97%
57. CCSc1nn2c(=O)c(Cc3ccccc3)nnc2s1  -4.42%
58. Cc1ccc(/C=C/c2nc(-c3c(F)cccc3F)no2)cc1  -4.49%
59. CCOc1ccc(Cc2nc(-c3ccc(Br)o3)no2)cc1OCC  -4.49%
60. COc1ccc(/C=C/C(=O)NC(c2ccccc2)c2ccccc2)cc1  -4.5%
61. COc1ccc(C2OC(=O)CC2C(=O)NCc2ccc(C)cc2)cc1OC (stereo not shown)  -4.69%
62. COc1ccc(OC)c(C2CCN(S(=O)(=O)c3csc(C(N)=O)c3)C2)c1 (stereo not shown)  -7.46%
63. CC(C)C[C@H](NC(=O)c1cc(-c2ccco2)cc(-c2ccco2)c1)C(=O)NCC#N  -8.26%
64. CCOc1cc(CNC(=O)C2CCN(c3nnc(-n4cccc4)s3)CC2)cc(OCC)c1OCC  -10%

Source: PMC6919601, “Identification of Plasmodium dipeptidyl aminopeptidase allosteric inhibitors by high throughput screening” (PLoS ONE, 2019)
